In PMC4336329 (PLoS ONE, 2015):
About 2,200 (0.71%) of roughly 310,000 compounds showed an effect of 50% or more. The effect is printed as a negative number. The list shows a part of the results.

Target: human ether-à-go-go-related gene (hERG) potassium channel (human, UniProt Q12809)
Assay: primary screen, population patch clamp on CHO cells stably expressing hERG

Chain of human ether-à-go-go-related gene (hERG) potassium channel (Q12809 whole entry, looked up): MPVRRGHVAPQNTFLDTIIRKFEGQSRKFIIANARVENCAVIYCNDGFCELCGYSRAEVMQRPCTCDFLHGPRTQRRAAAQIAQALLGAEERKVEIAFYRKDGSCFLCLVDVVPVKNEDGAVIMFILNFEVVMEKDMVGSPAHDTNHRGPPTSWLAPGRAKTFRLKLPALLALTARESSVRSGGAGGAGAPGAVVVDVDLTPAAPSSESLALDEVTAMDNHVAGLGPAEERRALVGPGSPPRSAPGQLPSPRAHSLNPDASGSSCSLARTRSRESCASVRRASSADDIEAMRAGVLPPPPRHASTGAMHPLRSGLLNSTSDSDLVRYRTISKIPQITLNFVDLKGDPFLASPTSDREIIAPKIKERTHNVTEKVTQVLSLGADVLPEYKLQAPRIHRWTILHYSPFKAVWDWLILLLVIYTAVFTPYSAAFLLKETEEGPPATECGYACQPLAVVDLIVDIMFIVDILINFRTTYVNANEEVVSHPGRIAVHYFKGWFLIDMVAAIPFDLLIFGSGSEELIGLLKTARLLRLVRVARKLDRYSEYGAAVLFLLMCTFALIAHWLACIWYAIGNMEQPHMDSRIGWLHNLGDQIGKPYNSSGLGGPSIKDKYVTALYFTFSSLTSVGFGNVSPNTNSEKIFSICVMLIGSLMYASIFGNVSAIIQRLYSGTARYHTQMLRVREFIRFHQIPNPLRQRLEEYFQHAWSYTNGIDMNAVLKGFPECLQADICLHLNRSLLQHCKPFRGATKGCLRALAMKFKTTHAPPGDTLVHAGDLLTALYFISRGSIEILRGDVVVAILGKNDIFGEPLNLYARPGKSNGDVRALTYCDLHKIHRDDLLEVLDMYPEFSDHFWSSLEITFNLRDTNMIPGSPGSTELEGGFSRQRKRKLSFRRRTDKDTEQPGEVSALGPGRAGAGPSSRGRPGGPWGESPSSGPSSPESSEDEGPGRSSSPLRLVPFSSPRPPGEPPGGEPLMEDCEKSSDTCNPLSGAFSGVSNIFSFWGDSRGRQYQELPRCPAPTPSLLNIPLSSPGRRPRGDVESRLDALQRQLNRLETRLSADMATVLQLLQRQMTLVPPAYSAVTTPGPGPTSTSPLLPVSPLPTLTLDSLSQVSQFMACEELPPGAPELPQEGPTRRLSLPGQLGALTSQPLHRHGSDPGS

Row | Structure (SMILES) | hERG current change (%, negative = inhibition) at 1uM
1 | O=c1c(Oc2ccccc2F)coc2cc(OCc3cnn(-c4ccccc4)c3)ccc12 | -6.87%
2 | O=C(NCC1CCCCC1)c1cc2ccccc2cc1O | -0.818%
3 | Cc1cccc(Sc2c([N+](=O)[O-])ncn2C)n1 | 4.24%
4 | COC(=O)c1ccc(NC(=O)CCN2C(=O)CSC2=O)cc1 | 8.21%
5 | CCc1ccc(OCCNC(=O)c2ccccc2SCc2ccccc2)cc1 | 6.16%
6 | CCC(C)(C)n1nnnc1C(c1cc2cc(C)ccc2[nH]c1=O)N1CCCc2ccccc21 (stereo not drawn) | 0.711%
7 | NC1=C(c2ccc(F)cc2)C(=O)CS1 | 14.8%
8 | Cc1ccc(NC(=O)c2ccc([N+](=O)[O-])cc2)cc1S(=O)(=O)N(C)C | 0.664%
9 | COc1ccc(C(=O)c2c3ccccc3[n+]([O-])n2CCC(N)=O)cc1 | 19.5%
10 | COc1ccc(NC(=O)Cn2c(=O)n(CC3CCCO3)c(=O)c3cc(OC)c(OC)cc32)cc1OC (stereo not drawn) | 6.77%
11 | O=C(O)C(C(=O)/C=C/c1ccco1)=C1SCCS1 | 5.17%
12 | CCCCCC1CC(/C(C)=N/NC(N)=O)OC1=O (stereo not drawn) | -0.329%
13 | CC1Cc2ccccc2N1C(=O)CCS(=O)(=O)c1cccc2nonc12 (stereo not drawn) | 6.5%
14 | COc1ccc(N(C(=O)c2ccco2)C(C(=O)NC2CCCC2)c2ccc(N(C)C)cc2)cc1OC (stereo not drawn) | 13.8%
15 | COc1cccc(CC2(CO)CCCN(Cc3cn[nH]c3C3CCCCC3)C2)c1 (stereo not drawn) | 5.05%
16 | Cc1cc(OCC(=O)NCC(c2ccc(F)cc2)N2CCOCC2)ccc1Cl (stereo not drawn) | -9.6%
17 | CCCC(=O)N(CCN1CCOCC1)c1nc2c(F)cc(F)cc2s1.Cl | 4.18%
18 | CCn1c(SCC(=O)NC2CCCCC2)nnc1-c1ccccc1F | 15.1%
19 | O=S1(=O)CCOCCCN1Cc1ccccc1F | 14.1%

Row | Structure (SMILES) | hERG current change (%, negative = inhibition) at 1uM
20 | O=C1CC(c2ccco2)Sc2ccccc2N1 (stereo not drawn) | 10%
21 | COC(=O)c1ccccc1NC(=O)c1cc(-c2ccc(C)cc2)on1 | -16%
22 | Cc1ccc(-n2nnc(-c3cnc4ccccc4c3)n2)cc1 | 17.2%
23 | CN=C1c2cc3cc(OC)ccc3n2CCN1C.Cl | -22.2%
24 | COC(=O)C1CCN(C(=O)CSc2nc3ccc(OC)cc3[nH]2)CC1 | 0.401%
25 | CCCS(=O)(=O)c1c(S(=O)(=O)CCC)c2ccc(C(N)=O)cn2c1C(=O)c1ccc(OC)cc1 | 9.09%
26 | Nc1c(C(=O)NCc2ccc3c(c2)OCO3)nnn1CC(=O)Nc1ccc(Br)cc1 | 13.4%
27 | NS(=O)(=O)c1ccc(CCNC(=O)CCC(=O)c2cccs2)cc1 | 3.27%
28 | COc1ccc(NC(=O)c2cnc(NS(=O)(=O)c3ccccc3)nc2)cc1 | 8.41%
29 | COc1ccccc1/C=N/NC(=O)NC12CC3CC(CC(C3)C1)C2 | 15.2%
30 | O=C(N/N=C1/C(=O)c2cccc3cccc1c23)c1ccc(Cl)cc1 | 17.7%
31 | CCc1cc(=O)oc2cc(OCC(=O)N3CCC[C@H]3C(=O)O)ccc12 | 8.19%
32 | Cl.Oc1ccc(CNC2CCCCC2)cc1 | -0.777%
33 | COC(=O)Cc1nc2ccccc2[nH]1.Cl | 14.7%
34 | COc1ccccc1-n1cnnc1SCC(=O)NCc1cccs1 | 6.63%
35 | COc1cccc(NC(=O)CN2C(=O)NC(C)(CCC(C)C)C2=O)c1 (stereo not drawn) | 8.31%
36 | COC(=O)c1ccc(Cn2nc(C)c(Cl)c2C)o1 | 18%
37 | Br.COc1ccccc1OCC(=O)NN1Cc2ccccc2C1=N | 11.2%
38 | Cc1cc(NCc2ccco2)nc2cc(O)ccc12 | -1.42%

Row | Structure (SMILES) | hERG current change (%, negative = inhibition) at 1uM
39 | CCCCCC(=O)Nc1ccc(S(=O)(=O)Nc2nccnc2OC)cc1 | 1.19%
40 | CC1=CC(=C(C#N)c2nc3ccccc3s2)C=C(C)N1Cc1ccco1 | 3.93%
41 | COc1cccc(C(=O)Nc2ccc(C(=O)c3ccncc3)cc2)c1 | 0.376%
42 | CC(C)CC(c1nnnn1Cc1ccccc1)N1CCN(C(=O)c2ccco2)CC1 (stereo not drawn) | -11.2%
43 | CCCCN(C(=O)c1cc2ccccc2o1)c1c(N)n(CC(C)C)c(=O)[nH]c1=O | 6.09%
44 | O=C(NC1CCCC1)C(c1ccc(N2CCOCC2)cc1)N(C(=O)c1ccco1)c1ccccc1F (stereo not drawn) | 15.4%
45 | CCCNC(=O)c1cc(OC)c(OC)cc1[N+](=O)[O-] | 0.889%
46 | CCSc1nnc(NC(=O)[C@H](C)N2C(=O)C3CC=CCC3C2=O)s1 (stereo partly drawn) | 8.93%
47 | CC1Cc2nc(SCC(=O)Nc3ccc4c(c3)OCO4)n(-c3ccc(F)cc3)c(=O)c2S1 (stereo not drawn) | 4.81%
48 | Cc1nnc(SCC(=O)N2CCC(Cc3ccccc3)CC2)n(N)c1=O | -1.97%
49 | Cc1c(C(=O)N2CCC3(CC2)OCCO3)sc2ncnc(N(C)c3ccccc3)c12 | -1.12%
50 | CCc1cc2c(=O)c(-c3nc(C)cs3)coc2cc1OC(C)C(=O)NCCO (stereo not drawn) | 5.41%
51 | Cc1nnc(SCC(=O)Nc2cc(Cl)ccc2Cl)n1CC1CCCO1 (stereo not drawn) | 4.35%
52 | CN(C)S(=O)(=O)c1ccc(Cl)c(NC(=O)C2CCN(S(=O)(=O)c3cccs3)CC2)c1 | 8.6%
53 | COc1ccc(CNC(=O)N2CCN(S(=O)(=O)c3ccc(C)cc3C)CC2)cc1 | 11%
54 | Cc1ccc(-c2csc3ncn(C(C)C(=O)O)c(=O)c23)cc1 (stereo not drawn) | 9.07%
55 | COC(=O)c1sc(NC(=O)CSc2nnnn2-c2ccc(C)cc2C)nc1C | 10.6%
56 | CN(Cc1nc2ccccc2c(=O)[nH]1)C(=O)c1ccc(S(=O)(=O)N(C)C)cc1 | 3.22%
57 | CC12COC3(C(=O)Nc4ccc([N+](=O)[O-])cc4)CC1CCC32C (stereo not drawn) | 0.546%
